# “And” between values parts separate entries of the source, which are not always exact repeats. Equal entries are not always repeated. This list was built around the results that the source calls inconclusive (neither active nor inactive); the mix of calls is not that of the screen. For part of these data: A potency beside an inconclusive call is a rough fit, not a confirmed value. For part of these data: “Side channel” marks fits to a control or component signal instead of the main read-out. The source made the active and inactive calls. Unless noted, calls follow the shape of the full dose curve. Residues, ends and D or L forms follow the SMILES beside them.
# How the values were obtained:
# [1] = target: Voltage-gated inwardly rectifying potassium channel KCNH2 (Homo sapiens) (UniProt Q12809); test: qHTS Assay for Small Molecule Inhibitors of the Human hERG Channel Activity (AID 588834; active = well fitted curve in the direction sought with a large enough effect; inconclusive = small, poorly fitted or top-dose-only effect, or another doubt; inactive = no such curve, though single readings can be large; an effect the other way counts as inactive or inconclusive;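 also: lower thallium flux fluorescence means stronger hERG block; nearly all actives have a fitted effect of over 50% in size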; also: potency is read from the fitted curve at half-maximal effect;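 as to activity change, negative = inhibition: U2OS cells transduced with hERG by BacMam; top concentration of the series differs between compounds; % is scaled to controls: 0 for no effect and ±100 for the full control effect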); conditions: U2OS BacMam hERG, FluxOR thallium flux fluorescence; activity change, negative = inhibition: at 46.1 µM (top of the series)
# Method in brief: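 Cells were infected with hERG-BacMam virus for 4 hrs at room temperature, grown overnight, then seeded at 2000/well. After dye loading and roughly 10 min compound treatment, thallium influx was triggered and fluorescence recorded.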
# [2] = target: Bile acid receptor (Homo sapiens) (UniProt Q96RI1); test: qHTS assay for small molecule agonists of farnesoid X receptor signaling (AID 588527); conditions: HEK293T FXR-UAS-bla, beta-lactamase ratio, 16 h; activation: stronger effect = higher value; also: potency is read from the fitted curve at half-maximal effect
# Method in brief: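 FXR-UAS-bla HEK293T cells (10% dialyzed FBS) preincubated 5-7 h at 37 C, then compounds at up to 92 uM for 16 h at 37 C. CCF4 beta-lactamase read-out after 2 h RT. Normalized to chenodeoxycholic acid (100 uM) and DMSO; Hill fit gave EC50 and efficacy.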
# [3] = target: Peroxisome proliferator-activated receptor gamma (Homo sapiens) (UniProt P37231); test: qHTS assay for small molecule antagonists of peroxisome proliferator-activated receptor gamma signaling (AID 588537; active = well fitted inhibition curve with a large enough effect in the signal ratio, with a control signal flat, not every such curve was filed as active; inconclusive = small, poorly fitted or top-dose-only effect, or effect the other way, or a change in a side signal; the % refers to the signal ratio; also: potency is read from the fitted curve at half-maximal effect;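 also: reporter cells co-stimulated with 50 nM rosiglitazone agonist during compound treatment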; as to activity, negative = inhibition: % of control where 0% means no effect); conditions: HEK293 PPARg-UAS-bla, beta-lactamase ratio, antagonist mode; activity, negative = inhibition: at 76.8 µM (top of the series)
# Method in brief: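 Fluorescence at 460 and 530 nm (405 nm excitation) reported beta-lactamase cleavage of CCF4 after 2 h room-temperature loading. HEK293 reporter cells in 1% charcoal/dextran-treated FBS had received compound and rosiglitazone for 16 h.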
# [4] = target: Retinoic acid receptor RXR-alpha (Homo sapiens) (UniProt P19793); test: qHTS assay for small molecule agonists of retinoid X receptor alpha signaling (AID 588544); conditions: HEK293T RXRa-UAS-bla, beta-lactamase reporter, 18 h; activation: at 76.7 µM (top of the series); also: potency is read from the fitted curve at half-maximal effect;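 as to activation: 0% = DMSO basal wells and 100% = reference agonist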
# [5] = target: Retinoic acid receptor RXR-alpha (Homo sapiens) (UniProt P19793); test: qHTS assay for small molecule antagonists of retinoid X receptor alpha signaling (AID 588546; active = well fitted inhibition curve with a large enough effect in the signal ratio, with a control signal flat, not every such curve was filed as active; inconclusive = small, poorly fitted or top-dose-only effect, or effect the other way, or a change in a side signal; inactive = no such curve, though single readings can be large or run the other way; the % refers to the signal ratio;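 also: cells stimulated with 9-cis-retinoic acid as agonist; % is scaled to controls: 0 for no effect and ±100 for the full control effect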); conditions: HEK293T RXRa-UAS-bla, beta-lactamase ratio, antagonist mode
# Method in brief: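 Beta-lactamase reporter inhibition, read as CCF4 fluorescence ratio (ex 405, em 460/530 nm) after 2 h at RT. HEK293T UAS-bla cells, 2500/well, were stimulated with 9-cis-RA at 500 or 100 nM final alongside test compound for 18 h at 37 C.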
# [6] = target: Thyroid hormone receptor beta (Homo sapiens) (UniProt P10828); test: qHTS assay for small molecule antagonists of thyroid hormone receptor beta signaling (AID 588547; active = well fitted inhibition curve with a large enough effect in the signal ratio, with a control signal flat, not every such curve was filed as active; inconclusive = small, poorly fitted or top-dose-only effect, or effect the other way, or a change in a side signal; the % refers to the signal ratio; also: potency is read from the fitted curve at half-maximal effect;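 as to activity change % (negative = inhibition): cells stimulated with 0.4 nM T3 agonist during compound exposure; % is scaled to controls: 0 for no effect and ±100 for the full control effect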); conditions: TR-UAS-bla HEK293, beta-lactamase ratio, antagonist mode, 18 h
# Method in brief: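 TR-UAS-bla GripTite HEK293 cells in 2% charcoal/dextran FBS medium; compounds 0.59 nM to 92 uM with T3 at 0.4nM final, 18 h at 37 C. Beta-lactamase read by CCF4 fluorescence (460/530 nm); Hill fits gave IC50 and efficacy.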
# [7] = target: Peroxisome proliferator-activated receptor delta (Homo sapiens) (UniProt Q03181); test: qHTS assay for small molecule antagonists of peroxisome proliferator-activated receptor delta signaling (AID 588535; active = well fitted inhibition curve with a large enough effect in the signal ratio, with a control signal flat, not every such curve was filed as active; inconclusive = small, poorly fitted or top-dose-only effect, or effect the other way, or a change in a side signal; inactive = no such curve, though single readings can be large or run the other way; the % refers to the signal ratio); conditions: HEK293T PPARd-UAS-bla, beta-lactamase FRET ratio, 18 h; activity change, negative = inhibition: at 76.7 µM (top of the series)
# Method in brief: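 Fluorescence from CCF4-loaded GeneBLAzer PPAR-delta-UAS-bla HEK293T cells (2 hrs RT loading) quantified reporter inhibition after an 18 hr, 37 C compound exposure across a titration.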
# [8] = target: Peroxisome proliferator-activated receptor gamma (Homo sapiens) (UniProt P37231); test: qHTS assay for small molecule agonists of peroxisome proliferator-activated receptor gamma signaling (AID 588536; active = well fitted curve in the direction sought with a large enough effect in the signal ratio, with a control signal flat, not every such curve was filed as active; inconclusive = small, poorly fitted or top-dose-only effect, or effect the other way, or a change in a side signal; inactive = no such curve, though single readings can be large or run the other way; the % refers to the signal ratio; also: potency is read from the fitted curve at half-maximal effect;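 as to activation: 0% = DMSO basal wells and 100% = rosiglitazone at 2 µM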); conditions: HEK293 PPARg-UAS-bla, beta-lactamase ratio, 16 h, percent of rosiglitazone response, DMSO as zero
# Method in brief: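 Cells were plated and held 6–6.5 h at 37 C, then compounds were added as a titration series. After a further 16 h, CCF4 dye was loaded for 2 h at room temperature and emission at 460/530 nm recorded.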
# [9] = S16 Schwann cell PMP22 intronic element firefly luciferase assay (AID 624032; active = well fitted curve in the direction sought with a large enough effect; inconclusive = small, poorly fitted or top-dose-only effect, or another doubt; inactive = no such curve, though single readings can be large; an effect the other way counts as inactive or inconclusive; also: nearly all actives have a fitted effect of over 30% in size; also: potency is read from the fitted curve at half-maximal effect;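 as to activity change, negative = inhibition: plate controls were DMSO for no effect and PTC124 positive control mean for full effect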); conditions: S16 rat Schwann cells, PMP22 element FLuc, 24 h; series mostly up to 57.5 µM
# Method in brief: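 Rat S16 Schwann cells stably carrying firefly luciferase driven by a PMP22 intronic element, in 10% FBS, treated 24 h at 37 C. ONE-Glo luminescence normalized to PTC124 control and DMSO (0%); curves classed by r2, magnitude and activity.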
# [10] = target: Glucocorticoid receptor (Homo sapiens) (UniProt P04150); test: qHTS assay for small molecule agonists of glucocorticoid receptor signaling (AID 588532; active = well fitted curve in the direction sought with a large enough effect in the signal ratio, with a control signal flat; inconclusive = small, poorly fitted or top-dose-only effect, or a change in a side signal; inactive = no such curve, though single readings can be large or run the other way; the % refers to the signal ratio; also: potency is read from the fitted curve at half-maximal effect;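 as to activation: 100% = dexamethasone at 0.1 µM and 0% = DMSO only wells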); conditions: HeLa MMTV-bla, beta-lactamase ratio, agonist, 18 h; activation: stronger effect = higher value, percent of dexamethasone control, DMSO zero
# Method in brief: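 HeLa GRE-bla reporter cells; 18 h compound exposure at 37 C; 2 h CCF4 loading at room temperature; fluorescence at 460 and 530 nm; EC50 by Hill equation.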
# [11] = target: Bile acid receptor (Homo sapiens) (UniProt Q96RI1); test: qHTS assay for small molecule antagonists of farnesoid X receptor signaling (AID 588526); conditions: HEK293T FXR-UAS-bla, beta-lactamase ratio, antagonist mode; activity change, negative = inhibition: at 76.7 µM (top of the series); also: potency is read from the fitted curve at half-maximal effect; as to activity change, negative = inhibition: % is scaled to controls: 0 for no effect and ±100 for the full control effect
# Method in brief: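 Antagonist mode: titrated compounds tested against chenodeoxycholic acid stimulation (normalized to 50 uM CDCA and DMSO) in GeneBLAzer HEK293T cells for 16 h. Beta-lactamase read by CCF4 fluorescence; IC50 from Hill fits.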
# [12] = target: Glucocorticoid receptor (Homo sapiens) (UniProt P04150); test: qHTS assay for small molecule antagonists of glucocorticoid receptor signaling (AID 588533; active = well fitted inhibition curve with a large enough effect in the signal ratio, with a control signal flat, not every such curve was filed as active; inconclusive = small, poorly fitted or top-dose-only effect, or effect the other way, or a change in a side signal; the % refers to the signal ratio;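 also: cells stimulated with 2 nM dexamethasone as agonist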; also: potency is read from the fitted curve at half-maximal effect); conditions: HeLa MMTV-bla, GRE beta-lactamase ratio, antagonist mode, 18 h; activity change, negative = inhibition: at 76.8 µM (top of the series)
# [13] = target: Peroxisome proliferator-activated receptor delta (Homo sapiens) (UniProt Q03181); test: qHTS assay for small molecule agonists of peroxisome proliferator-activated receptor delta signaling (AID 588534); conditions: HEK293T PPARdelta-UAS-bla, beta-lactamase ratio, 18 h; also: potency is read from the fitted curve at half-maximal effect
# Method in brief: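 Agonist-mode qHTS; reporter cells, 5 hrs 37 C pre-incubation; compound titration, 18 hrs 37 C; CCF4 dye, 2 hrs RT; fluorescence read. EC50/efficacy via Hill fit.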
# [14] = target: Thyroid hormone receptor beta (Homo sapiens) (UniProt P10828); test: qHTS assay for small molecule agonists of thyroid hormone receptor beta signaling (AID 588545); conditions: TR-UAS-bla GripTite HEK 293, beta-lactamase ratio, agonist mode, 18 h; activation: at 76.7 µM, percent of T3 response, DMSO as zero; also: potency is read from the fitted curve at half-maximal effect
# Method in brief: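 In this cell-based screen, titrated compounds act on HEK 293 cells held in medium with 2% charcoal/dextran FBS, NEAA and pyruvate for 18 hrs at 37 C. Responses are expressed relative to T3 (10 nM) as 100% and basal DMSO as 0%.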
# [15] = target: Luciferin 4-monooxygenase (Photinus pyralis) (UniProt P08659); test: Biochemical firefly luciferase enzyme assay for NPC (AID 624030; active = well fitted curve in the direction sought with a large enough effect; inconclusive = small, poorly fitted or top-dose-only effect, or another doubt; inactive = no such curve, though single readings can be large; an effect the other way counts as inactive or inconclusive;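 also: purified P. pyralis luciferase at 10 nM with luciferin and ATP substrate; 0% = DMSO and -100% = full luciferase inhibition by PTC124 control; nearly all actives have a fitted effect of over 70% in size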); conditions: purified P. pyralis luciferase, luminescence, 5 min; series mostly up to 58.6 µM
# Method in brief: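 Purified P. pyralis luciferase at 10 nM in 50 mM Tris Acetate (final), luminescence read within 5 minutes of enzyme addition to compounds. Activity normalised to PTC124 versus DMSO; concentration-response curves classed by r2, magnitude and activity.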
# [16] = target: Glutaminase kidney isoform, mitochondrial (Homo sapiens) (UniProt O94925); test: qHTS for Inhibitors of Glutaminase (GLS): LOPAC Validation (AID 624146; active = well fitted curve in the direction sought with a large enough effect; inconclusive = small, poorly fitted or top-dose-only effect, or another doubt; inactive = no such curve, though single readings can be large; an effect the other way counts as inactive or inconclusive;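 also: glutamate product detected by oxidase and peroxidase coupled Amplex red fluorescence gain; % is scaled to controls: 0 for no effect and ±100 for the full control effect; nearly all actives have a fitted effect of over 60% in size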); conditions: glutaminase enzyme activity inhibition; series mostly up to 46.1 µM
# Method in brief: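 Compounds were pin-transferred onto hKGA, after which L-glutamine (1 mM solution) and a detection mix of glutamate oxidase, HRP and Amplex Red were added. Initial and 30 min RT fluorescence reads were collected.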
# [17] = activation: at 76.7 µM (top of the series)
# Tags tell the direction and shape of the fitted curve or compound fluorescence and quenching.
# UniProt Q03181, sequence (Q03181 whole entry, looked up): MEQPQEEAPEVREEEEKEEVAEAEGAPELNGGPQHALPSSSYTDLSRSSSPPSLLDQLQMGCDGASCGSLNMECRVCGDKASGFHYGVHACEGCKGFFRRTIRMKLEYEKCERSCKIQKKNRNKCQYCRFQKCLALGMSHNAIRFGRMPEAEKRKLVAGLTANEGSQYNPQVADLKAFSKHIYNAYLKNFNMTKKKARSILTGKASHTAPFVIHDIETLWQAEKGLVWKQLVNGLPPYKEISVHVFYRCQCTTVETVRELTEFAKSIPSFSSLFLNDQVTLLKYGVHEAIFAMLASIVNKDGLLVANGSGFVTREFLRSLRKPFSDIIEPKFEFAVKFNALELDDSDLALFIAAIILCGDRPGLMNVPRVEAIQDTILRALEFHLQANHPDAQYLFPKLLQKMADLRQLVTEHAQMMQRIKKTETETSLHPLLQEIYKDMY
# UniProt Q12809, sequence (Q12809 whole entry, looked up): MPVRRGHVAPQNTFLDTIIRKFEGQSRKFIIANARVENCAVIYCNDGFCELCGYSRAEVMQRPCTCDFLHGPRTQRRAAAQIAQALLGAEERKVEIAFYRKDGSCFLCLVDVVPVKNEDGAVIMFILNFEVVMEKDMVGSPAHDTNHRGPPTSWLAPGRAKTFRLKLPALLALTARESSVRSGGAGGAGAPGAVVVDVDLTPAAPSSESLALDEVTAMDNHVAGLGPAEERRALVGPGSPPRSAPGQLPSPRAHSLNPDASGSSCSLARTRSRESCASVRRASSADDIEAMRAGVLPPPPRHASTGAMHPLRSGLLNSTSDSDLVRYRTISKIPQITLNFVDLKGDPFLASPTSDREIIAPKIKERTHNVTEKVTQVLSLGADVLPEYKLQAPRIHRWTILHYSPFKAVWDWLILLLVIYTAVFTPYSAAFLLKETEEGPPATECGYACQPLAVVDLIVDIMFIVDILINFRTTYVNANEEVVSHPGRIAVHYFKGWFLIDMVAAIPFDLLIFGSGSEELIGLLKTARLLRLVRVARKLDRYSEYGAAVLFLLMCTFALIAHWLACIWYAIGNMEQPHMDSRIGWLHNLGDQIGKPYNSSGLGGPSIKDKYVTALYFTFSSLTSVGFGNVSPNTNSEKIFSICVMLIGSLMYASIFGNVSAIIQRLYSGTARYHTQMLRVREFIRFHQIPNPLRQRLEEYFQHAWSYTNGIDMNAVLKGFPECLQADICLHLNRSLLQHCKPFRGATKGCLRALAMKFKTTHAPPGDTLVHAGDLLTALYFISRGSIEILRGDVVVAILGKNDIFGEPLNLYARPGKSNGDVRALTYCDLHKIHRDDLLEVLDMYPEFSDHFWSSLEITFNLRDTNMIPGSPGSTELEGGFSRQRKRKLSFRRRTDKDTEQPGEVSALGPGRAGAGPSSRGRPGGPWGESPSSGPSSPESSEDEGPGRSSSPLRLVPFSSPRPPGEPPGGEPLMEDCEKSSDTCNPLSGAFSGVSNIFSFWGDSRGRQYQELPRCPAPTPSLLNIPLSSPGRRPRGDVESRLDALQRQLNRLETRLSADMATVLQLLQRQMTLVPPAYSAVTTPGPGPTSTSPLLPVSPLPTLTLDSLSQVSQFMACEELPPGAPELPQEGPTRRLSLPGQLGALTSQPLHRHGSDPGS
# UniProt P19793, sequence (P19793 whole entry, looked up): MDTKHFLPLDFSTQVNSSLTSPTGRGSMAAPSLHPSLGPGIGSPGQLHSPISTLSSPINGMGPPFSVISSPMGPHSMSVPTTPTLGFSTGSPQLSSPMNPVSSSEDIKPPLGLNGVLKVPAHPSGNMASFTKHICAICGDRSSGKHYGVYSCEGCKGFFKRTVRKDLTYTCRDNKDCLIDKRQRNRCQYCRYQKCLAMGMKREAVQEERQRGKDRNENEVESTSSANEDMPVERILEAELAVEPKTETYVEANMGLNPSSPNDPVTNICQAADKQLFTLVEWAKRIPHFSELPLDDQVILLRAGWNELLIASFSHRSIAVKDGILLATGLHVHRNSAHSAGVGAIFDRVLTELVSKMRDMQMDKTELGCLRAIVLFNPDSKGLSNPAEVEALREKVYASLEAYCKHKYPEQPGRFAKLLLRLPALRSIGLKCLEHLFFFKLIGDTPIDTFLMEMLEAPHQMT
# UniProt P10828, sequence (P10828 whole entry, looked up): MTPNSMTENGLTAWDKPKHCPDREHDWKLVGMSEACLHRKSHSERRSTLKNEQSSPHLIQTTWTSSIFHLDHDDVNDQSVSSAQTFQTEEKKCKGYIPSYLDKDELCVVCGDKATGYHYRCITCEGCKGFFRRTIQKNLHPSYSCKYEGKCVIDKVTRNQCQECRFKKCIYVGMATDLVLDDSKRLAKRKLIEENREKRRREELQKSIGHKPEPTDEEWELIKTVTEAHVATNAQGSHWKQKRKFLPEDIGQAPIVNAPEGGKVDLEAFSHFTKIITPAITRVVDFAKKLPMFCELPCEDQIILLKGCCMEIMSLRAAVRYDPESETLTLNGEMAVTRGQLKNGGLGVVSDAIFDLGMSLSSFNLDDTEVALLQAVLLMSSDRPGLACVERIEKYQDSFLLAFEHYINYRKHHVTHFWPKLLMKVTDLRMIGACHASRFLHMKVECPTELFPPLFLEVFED
# UniProt P08659, sequence (P08659 whole entry, looked up): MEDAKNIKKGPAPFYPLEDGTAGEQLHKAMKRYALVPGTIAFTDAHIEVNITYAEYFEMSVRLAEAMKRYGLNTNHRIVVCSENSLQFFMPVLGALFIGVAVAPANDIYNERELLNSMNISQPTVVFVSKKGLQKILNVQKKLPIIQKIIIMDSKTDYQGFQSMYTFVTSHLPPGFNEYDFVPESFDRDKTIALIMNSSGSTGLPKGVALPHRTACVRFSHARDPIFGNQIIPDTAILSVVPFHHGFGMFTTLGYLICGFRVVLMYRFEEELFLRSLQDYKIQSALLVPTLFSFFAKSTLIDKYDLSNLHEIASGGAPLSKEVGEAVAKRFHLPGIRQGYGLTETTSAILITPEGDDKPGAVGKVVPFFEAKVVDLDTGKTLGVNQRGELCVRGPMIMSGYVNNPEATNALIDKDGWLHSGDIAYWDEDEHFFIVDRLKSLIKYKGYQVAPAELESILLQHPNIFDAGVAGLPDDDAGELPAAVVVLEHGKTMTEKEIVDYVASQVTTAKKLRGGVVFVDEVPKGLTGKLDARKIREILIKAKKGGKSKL
# UniProt O94925, sequence (O94925 whole entry, looked up, canonical isoform): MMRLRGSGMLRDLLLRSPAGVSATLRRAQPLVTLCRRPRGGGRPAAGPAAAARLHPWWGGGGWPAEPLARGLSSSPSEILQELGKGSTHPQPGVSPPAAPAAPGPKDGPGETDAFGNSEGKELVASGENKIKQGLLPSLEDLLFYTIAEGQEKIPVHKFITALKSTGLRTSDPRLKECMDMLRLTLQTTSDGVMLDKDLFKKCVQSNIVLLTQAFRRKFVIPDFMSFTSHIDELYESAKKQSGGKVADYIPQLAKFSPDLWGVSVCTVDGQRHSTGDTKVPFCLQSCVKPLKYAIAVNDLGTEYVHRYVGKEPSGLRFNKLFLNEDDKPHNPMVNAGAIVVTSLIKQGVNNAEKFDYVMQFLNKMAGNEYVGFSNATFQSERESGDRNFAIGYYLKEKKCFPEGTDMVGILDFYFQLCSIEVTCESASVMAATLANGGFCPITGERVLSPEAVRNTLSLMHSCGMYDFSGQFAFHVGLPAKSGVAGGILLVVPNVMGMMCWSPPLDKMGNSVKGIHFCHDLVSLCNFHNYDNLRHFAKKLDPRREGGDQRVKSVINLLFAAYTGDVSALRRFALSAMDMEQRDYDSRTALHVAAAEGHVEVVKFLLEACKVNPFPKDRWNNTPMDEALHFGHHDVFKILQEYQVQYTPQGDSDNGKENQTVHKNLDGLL
smiles,measurement,setting,value
CCC1=C(C)CN(C(=O)NCCc2ccc(S(=O)(=O)NC(=O)NC3CCC(C)CC3)cc2)C1=O (stereo not given),Potency,[1],"inconclusive: 28.2 µM [inhibitor, partial curve, poor fit]"
C=CCc1cc(OC)c(O)c(C(=O)NCCO)c1,Potency,[1],"inconclusive: 35.5 µM [inhibitor, single point]"
Cc1noc(NS(=O)(=O)c2ccc(N)cc2)c1C,Potency,[2],"inconclusive: 50.1 µM [side channel, rising, single point]"
same,"activity, negative = inhibition",[3],inconclusive: -5.38%
same,activation,[4],inconclusive: 31%
same,max response,[5],inactive: 10.6% and inactive: -8.28%
same,Potency,[6],"inconclusive: 8.91 µM [cytotoxic, side channel, partial curve, poor fit]"
same,activity change % (negative = inhibition),[6],inconclusive: 1.45%
Cc1ncc([N+](=O)[O-])n1CCO,Potency,[7],inactive
same,Potency,[8]; [17],inactive
same,"activity, negative = inhibition",[3],inconclusive: 7.18%
same,max response,[5],inactive: 26.4%
CCCc1cc(=O)[nH]c(=S)[nH]1,Potency,[3],"inconclusive: 44.7 µM [inhibitor, partial curve]"
same,activity change % (negative = inhibition),[6],inconclusive: -11.4%
same,Potency,[9],inactive
CCn1cc(C(=O)O)c(=O)c2ccc(C)nc21,Potency,[8]; [17],inactive
same,Potency,[3],inactive
same,max response,[5],inactive: -0.374% and inactive: 6.98%
same,Potency,[9],inactive
COc1ccc(C(=O)CC(=O)c2ccc(C(C)(C)C)cc2)cc1,Potency,[1],"inconclusive: 17.8 µM [inhibitor, partial curve, poor fit]"
Cn1cnc2c1c(=O)[nH]c(=O)n2C,Potency,[7],inactive
COC(=O)[C@H](Cc1ccccc1)NC(=O)[C@@H](N)CC(=O)O (H-Asp-Phe-OMe),activation,[10],inactive: -0.956% and inactive: -8.82%
same,Potency,[3],"inconclusive: 44.7 µM [inhibitor, partial curve, poor fit] and inactive"
same,activity change % (negative = inhibition),[6],inactive: 6.56% and inactive: 1.22%
same,Potency,[1],inactive
Cc1cn([C@H]2C=C[C@@H](CO)O2)c(=O)[nH]c1=O,"activity change, negative = inhibition",[7],inconclusive: 17.2%
same,Potency,[6],"inconclusive: 0.0035 µM [side channel, falling, full curve, poor fit]"
Clc1ccc(C(c2ccccc2Cl)C(Cl)Cl)cc1 (stereo not given),Potency,[11],"inconclusive: 39.8 µM [inhibitor, partial curve]"
same,"activity change, negative = inhibition",[11],inconclusive: -40.6%
same,Potency,[2],"inconclusive: 35.5 µM [side channel, rising, partial curve, poor fit]"
same,Potency,[10],"inconclusive: 56.2 µM [side channel, falling, partial curve, poor fit]"
same,Potency,[12],"inconclusive: 44.7 µM [inhibitor, partial curve, poor fit] and inconclusive: 44.7 µM [inhibitor, single point]"
same,Potency,[13],"inconclusive: 50.1 µM [falling, single point]"
same,"activity change, negative = inhibition",[7],inconclusive: -77.2%
same,Potency,[8]; [17],"inconclusive: 50.1 µM [cytotoxic, side channel, single point]"
same,activation,[8]; [17],inconclusive: 56.5%
same,Potency,[3],"inconclusive: 44.7 µM [inhibitor, partial curve]"
same,"activity, negative = inhibition",[3],inconclusive: -10.9%
same,Potency,[4],"inconclusive: 22.4 µM [inhibitor, full curve, poor fit] and inconclusive: 31.6 µM [inhibitor, partial curve]"
same,Potency,[14],"inconclusive: 50.1 µM [rising, single point]"
same,max response,[5],inconclusive: -34.6% and inconclusive: -35.8%
same,Potency,[6],"inconclusive: 70.8 µM [cytotoxic, side channel, single point]"
same,Potency,[15],inactive
same,Potency,[9],"inconclusive: 40.5 µM [inhibitor, single point]"
O=C(O)c1cc(=O)[nH]c(=O)[nH]1,"activity change, negative = inhibition",[12],inconclusive: 20.2%
same,"activity change, negative = inhibition",[7],inconclusive: -22.9%
same,Potency,[3],"inconclusive: 39.8 µM [fluorescent, side channel, single point]"
same,activity change % (negative = inhibition),[6],inactive: 1.95%
Cc1cc(O)c2c(c1)C(=O)c1cccc(O)c1C2=O,Potency,[10],"inconclusive: 25.1 µM [side channel, falling, single point]"
same,Potency,[7],inactive
same,activation,[14],inconclusive: -33.1%
CC(COc1ccccc1)N(CCCl)Cc1ccccc1 (stereo not given),"activity change, negative = inhibition",[12],inconclusive: 20.1%
same,activation,[8]; [17],inconclusive: -8.29%
same,activation,[8]; at 76.7 µM (top of the series),inactive: -12.5%
same,Potency,[16],inactive
CCCC(CCC)C(=O)O,"activity change, negative = inhibition",[12],inconclusive: 2.2%
same,Potency,[8]; [17],"inconclusive: 794 µM [activator, partial curve]"
same,"activity, negative = inhibition",[3],inconclusive: 7.15%
same,Potency,[14],"inconclusive: 0.112 µM [side channel, falling, full curve, poor fit]"
same,activity change % (negative = inhibition),[6],inconclusive: -6.73% and inactive: -9.25% and inactive: 16%

# Reference: PubChem BioAssay (NCATS)
